Test results from PMC12040169 (PLOS Biology, 2025).
The other results are listed elsewhere or left out.

System: T1, C. trachomatis L2/434/Bu expressing GFP (CTL2-GFP)
T1 construct: L2/434/Bu GFP intracellular growth in HeLa cells
Design: species or system HeLa; C. trachomatis total inclusion area by high-content imaging, normalised to DMSO
Conditions: total inclusion area; 28.5 h, 10 µM; inhibitor
How it was run: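 High-content images of fixed, Hoechst-stained infected cultures supply inclusion area and count (growth) plus nuclei number (viability), complementing bulk GFP/resorufin fluorescence. MIC determination is unchanged from the primary assay.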

SMILES	% of control remaining
N#Cc1cccc(Nc2cncc(-c3cccs3)n2)c1 [CBK066030]	114.304
COc1ccc(C(=O)N2C[C@H]3Cc4c(n[nH]c4C(F)F)[C@H]3C2)s1 [CBK283425]	106.45
CN1CCCc2cc(CN3CCC4(CCCNC4=O)CC3)ccc21 [CBK284876]	95.4215
O=C1NC(=O)C(CC(=O)N2CCC3(CCN(Cc4ccccc4)C3)C2)N1 (stereo not shown) [CBK136850]	72.4296
CCc1nn(CC(=O)N2CCCC2)c(=O)c2cc3oc(C)cc3n12 [CBK283584]	111.411
CCOc1ccc(-n2c(SCC(=O)Nc3cc(C(=O)O)ccc3Cl)nc3ccccc3c2=O)cc1 [CBK297512]	79.298
COCc1cccc(-c2nccnc2OC)c1 [CBK106956]	126.979
CC(=O)Nc1cccc(-n2nnnc2SCC(=O)N2CCNC2=O)c1 [CBK305043]	84.3299
Cc1cc(C(F)(F)F)nc(SCC(=O)N2c3ccccc3Sc3ccccc32)n1 [CBK268078]	67.7211
NS(=O)(=O)c1ccc(CCNC=C2C(=O)c3ccccc3C2=O)cc1 [CBK262997]	106.572
Cc1csc2c(C3CCN(C(=O)C4CC4)CC3)nc(C)n12 [CBK285241]	94.2144
CCCC/C=C/c1nccnc1N[C@@H](C)c1ccccc1 [CBK037138]	107.087
Cc1ccc2oc([C@H]3CCN(S(C)(=O)=O)C3)nc2c1 [CBK289371]	95.2976
CCc1c(C)sc(NC(=O)c2ccc(Br)o2)c1C#N [CBK021662]	76.9766
N#Cc1cnccc1N1CC2COCCC2(C(=O)N2CCCC2)C1 (stereo not shown) [CBK304731]	51.5213
O=C1NC2(CCN(C(=O)c3ccccc3F)CC2)Oc2ccccc21 [CBK283997]	78.1362
CCOc1ccc(S(=O)(=O)NC(C)C(=O)O)cc1C (stereo not shown) [CBK270178]	95.1522
FC(F)(F)Oc1ccc(-c2c[nH]c([C@@H]3COCCN3C3CCNCC3)n2)cc1 [CBK289312]	85.8023
CCn1c(=O)n(CC(=O)N2CCCCC2C)c2cccnc21 (stereo not shown) [CBK283896]	74.5081
COc1ccc(S(=O)(=O)N2CCN(CCN3C(=O)c4cccc5cccc(c45)C3=O)CC2)cc1[N+](=O)[O-] [CBK263301]	97.2926
COc1ccc2cc3c(nc2c1)Sc1nncn1N=C3 [CBK021248]	96.8415
Cc1cc(=O)n(CC(=O)NC(Cc2ccncc2)[C@H]2C[C@H](O)C2)nc1C (stereo partly shown) [CBK306641]	64.9948
O=C(c1cc(F)c(F)cc1F)N1CCC2(CCN(CCN3CCOCC3)C2)C1 (stereo not shown) [CBK132145C]	114.557
Cc1cnccc1-c1c[nH]nc1C1CCCN1C(=O)c1ccccc1 (stereo not shown) [CBK285499]	70.8172
C(=N\c1ccc(Cc2ccc(/N=C/c3ccc[nH]3)cc2)cc1)/c1ccc[nH]1 [CBK261282]	86.8797
Cc1c[nH]c(CN(C)C(=O)c2cccc(NC(=O)C3CCCC3)c2)n1 [CBK307282]	47.1507
O=C(CC1S\C(=N/N=C/C=C/c2ccccc2)N=C1O)Nc1ccc(C(=O)O)cc1 (stereo not shown) [CBK263711]	107.855

SMILES	% of control remaining
Cc1occc1-c1nnc(SCC(=O)c2ccc3c(c2)OCCO3)o1 [CBK268773]	100.128
Cc1ccc(S(=O)(=O)N2CCOCC2)cc1C(=O)O [CBK262256]	91.181
Cc1noc(-c2cn(C)nc2C2CCCCN2C(=O)C2CC2)c1C (stereo not shown) [CBK283410]	99.7543
CN(C)S(=O)(=O)N(CC(=O)Nc1ccc2c(c1)OCO2)c1ccccc1 [CBK268481]	74.7103
Cc1ccc(C(=O)O)cc1S(=O)(=O)NCCCO [CBK267171]	77.0072
O=C(O)CC1COCCN1Cc1ccc(Cn2cccn2)cc1 (stereo not shown) [CBK306827]	68.6807
Cc1cc(C)nc(N2CCN(C(=O)CCC(=O)NCc3cccc(C(F)(F)F)c3)CC2)n1 [CBK022261]	82.1417
CC(=O)N1c2ccc(-c3cc4ccccn4c3)cc2CC1C (stereo not shown) [CBK285254]	109.866
CCC(C(=O)N1CCC(C(=O)c2cccnc2)CC1)c1ccccc1 (stereo not shown) [CBK283525]	99.4174
Oc1cc(C(F)(F)F)nc(NCc2ccc3ccccc3c2)n1 [CBK003459]	73.8749
CC(O)CNCCCOc1ccccc1-c1ccccc1 (stereo not shown) [CBK268633G]	135.423
CC(C)(C)c1nc(-c2ccccc2)c2ccccn12 [CBK149256]	76.8943
O=C(c1ccc2[nH]c(=O)[nH]c2c1)N1CCC(Cn2cncn2)(C2CCCCC2)CC1 [CBK136824]	97.2375
COc1cccc(-c2nnnn2[C@H]2CO[C@H]3[C@@H]2OC[C@@H]3NC(=O)c2ccc(C)cc2)c1 [CBK289512]	89.5538
O=c1[nH]c(SCc2n[nH]c(=S)n2-c2ccccc2)nc2sc3c(c12)CCCC3 [CBK300538]	119.231
COc1cccc(-c2nc(-c3ccc4[nH]c(=O)[nH]c4c3)cs2)c1OC [CBK298271]	92.7241
Cc1cc(OCC(=O)N2CCN(c3ccccc3F)CC2)no1 [CBK305898]	66.1246
N#CC1CCCc2c1[nH]c1ccc(Br)cc21 (stereo not shown) [CBK026475]	34.8929
c1ccc(Cn2cc(-c3cnc(N4CCOCC4)c4nccn34)cn2)cc1 [CBK091289]	109.244
C=CCn1ncc(CN2CCC3(O)CCCCC3C2)c1C (stereo not shown) [CBK283029]	103.502
Cc1ccc2c(c1)C1(CC(=O)N(C)C1=O)C(=O)N2CCOc1cccc2c1OCCO2 (stereo not shown) [CBK075529]	96.2191
CN1CCN(c2ccc(-c3cncc(NCCc4ccccn4)n3)cn2)CC1 [CBK037135]	97.2766
COc1ccccc1NC(=O)N1C[C@@H]2C[C@H](C1)c1c(-c3cccc(C#N)c3)ccc(=O)n1C2 [CBK289197]	93.6807
COc1cccc(CCN(Cc2ccc(S(=O)(=O)N3CCOC3=O)cc2)Cc2cccc(OCCO)c2)c1 [CBK014806]	129.854
C/C(=N\NC(N)=S)C(=O)O [CBK261575]	64.1996
CC(C)c1ccc(S(=O)(=O)NCCc2ccccc2)cc1 [CBK044426]	96.812
O=C(O)c1ccc(N2N=C(c3ccccc3)/C(=C\c3cccc([N+](=O)[O-])c3O)C2=O)cc1 [CBK265615]	101.833

SMILES	% of control remaining
COc1ccc(CN2CCCc3c(C)nc(C4CCCN(C(=O)C5CCC5)C4)nc32)cc1 (stereo not shown) [CBK286117]	72.535
O=c1ccc(O)nn1CN1CCN(Cc2ccccc2)CC1 [CBK265539]	97.5913
NC(=O)C1(N2CCCCC2)CCN(C(=S)Nc2ccc(F)c(Cl)c2)CC1 [CBK267165]	118.447
CC(C)CN1CCC(NC(=O)c2csc(-c3cnn(C)c3)n2)CC1 [CBK305790]	34.1656
COc1cccc(-c2nn(CCC#N)cc2C(=O)N2CCCCC2)c1 [CBK305942]	41.4015
OCC1CCCN1c1nccnc1-c1cccs1 (stereo not shown) [CBK089060]	87.2587
O=C(Oc1ccc(/C=N/c2ccc(-c3nc4ccccc4s3)c(O)c2)cc1)c1ccc(Cl)cc1 [CBK261234]	104.348
CC(C)(C)c1nnc2sc(-c3cccnc3)nn12 [CBK287289]	71.5591
Cc1c(C)c2c(O)n(-c3ccccc3)nc2[nH]c1=O [CBK287891]	92.147
Cc1cc(C)cc(N(C(C)C(=O)N2CCN(Cc3ccc4c(c3)OCO4)CC2)S(C)(=O)=O)c1 (stereo not shown) [CBK269060]	109.153
COc1ccc(Oc2cncc(OC3CCN(CC4CCCCC4)C3)n2)cc1OC (stereo not shown) [CBK084413]	83.5683
CCOc1ccc(S(=O)(=O)N2CCN(Cc3cc(F)c(F)c(F)c3)CC2)c2cccnc12 [CBK062795]	64.2943
CCCc1onc(S(=O)(=O)c2ccc(C)cc2)c1NC [CBK020322]	105.527
O=C(c1cc2c(s1)CCC2)N1CCn2c(nnc2C2CC2)C1 [CBK283770]	86.0052
CCc1nnc(SCC(=O)Nc2cc(OC)ccc2OC)[nH]1 [CBK270167]	93.8603
NS(=O)(=O)c1ccc(Cn2c(=O)[nH]c3ncc(-c4ccco4)nc32)cc1 [CBK064948]	105.865
c1cncc(-c2noc(-c3cc(C4CC4)[nH]n3)n2)c1 [CBK287973]	91.7419
Cc1noc(C)c1C(=O)N1CCCC(c2nc(C)n3ccsc23)C1 (stereo not shown) [CBK285211]	71.7195
COc1cc(C2C(C(=O)c3ccc(C)o3)=C(O)C(=O)N2Cc2cccnc2)cc(OC)c1OC (stereo not shown) [CBK264933]	90.7952
O=C(NCC1(c2ccccc2)CCOCC1)c1ccno1 [CBK067408]	44.3245
O=C(O)c1ccccc1NC(=S)NC(=O)c1ccccc1[N+](=O)[O-] [CBK264963]	110.485
C=C(C)Cn1c(SCC(=O)O)nnc1-c1ccc([N+](=O)[O-])cc1 [CBK263159]	102.283
CCN(CC)C(=O)C1C2CCC3(CC(=O)c4ccccc4O3)C21 (stereo not shown) [CBK284923]	56.7226
Cn1c(=O)[nH]c(=O)c2[nH]c(CN3CCN(Cc4ccccc4)CC3)nc21 [CBK269592]	66.056
CS(=O)(=O)N(Cc1ccccc1)c1ccc(C(=O)Nc2ccc3c(c2)OCO3)cc1 [CBK033562]	95.1457
